Data taken from the supplement of paper PMC11125491.
± gives the standard deviation of the averaged measurements. Growth of baker's yeast expressing single-residue variants of Pneumocystis jirovecii dihydrofolate reductase in 8.8 or 44 µM methotrexate (about 75% and 90% inhibition of the wild type). Selection coefficient per generation; 0 = like wild type, above 0 = less sensitive, below 0 = more sensitive or loss of function. No active / inactive call per row; the paper calls resistant above 0.220 (8.8 µM) or 0.243 (44 µM) together with a significance test. At 44 µM about 15% of codons end with one read or none, so the lowest values are floors (replicate rank correlation 0.74; 0.94 at 8.8 µM).

B1: UniProt A0EPZ9; numbered along this chain (parent)
chain: MDWQKSLTLIVALTLSRGIGLKNDLPWKLKSDMMFFSRVTSGLLVTRSTGQMNVVLMGRKTWESLPAHSRPLKNRINVVISRQEVLDLGGGAYHARSLDDALALLSQIYDSTSKIQLNRVFVIGGGELCKAAMEHSRLNRIIATVIHNEVDCDVFFPIDFRSSQSCLPWRKQDHSVLEAWVGSKVPQGKINENGFIYEFEMWIRDI

Variants of: B1
Test: selection coefficient against synonymous wild-type codons (log2 per generation); higher = faster growth than wild type
Details: with Saccharomyces cerevisiae carrying the variant on a plasmid
Description: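 Pooled growth of yeast carrying single-residue variants of P. jirovecii dihydrofolate reductase (own DFR1 gene intact), two passages at 30 °C, three cultures, sequenced before and after. Codons with under 15 starting reads are left out; codons of one change are averaged.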

Variant	selection coefficient against synonymous wild-type codons (log2) (methotrexate 8.8 µM)	selection coefficient against synonymous wild-type codons (log2) (methotrexate 44 µM)
A103H	0.0066 ± 0.036	0.0688 ± 0.065
A103N	0.0628 ± 0.059	0.0952 ± 0.11
A103G	-0.139 ± 0.033	-0.135 ± 0.094
A103Y	-0.178 ± 0.028	-0.148 ± 0.08
A103C	-0.182 ± 0.041	-0.112 ± 0.074
A103P	-0.51 ± 0.2	-0.137 ± 0.18
A103Q	0.0654 ± 0.022	0.058 ± 0.025
A103R	-0.00984 ± 0.026	0.0621 ± 0.083
A103M	-0.069 ± 0.049	-0.0575 ± 0.21
A103W	-0.432 ± 0.08	-0.173 ± 0.093
A103F	-0.193 ± 0.052	-0.254 ± 0.05
A103S	-0.0219 ± 0.091	-0.0431 ± 0.14
A103T	0.00132 ± 0.029	0.032 ± 0.062
A103D	0.0726 ± 0.013	0.2 ± 0.022
A103K	0.0305 ± 0.0081	0.0566 ± 0.012
A103E	0.0546 ± 0.031	0.0919 ± 0.095
A103I	-0.0935 ± 0.03	-0.0128 ± 0.11
A103V	-0.0805 ± 0.032	-0.0593 ± 0.19
A103L	-0.106 ± 0.045	-0.035 ± 0.1
S111C	-0.123 ± 0.017	-0.198 ± 0.049
S111P	0.00141 ± 0.041	-0.0811 ± 0.14
S111Y	-0.226 ± 0.04	-0.00109 ± 0.12
S111E	0.211 ± 0.026	1.23 ± 0.14

Variant	selection coefficient against synonymous wild-type codons (log2) (methotrexate 8.8 µM)	selection coefficient against synonymous wild-type codons (log2) (methotrexate 44 µM)
S111Q	-0.127 ± 0.13	0.0972 ± 0.17
S111A	-0.0576 ± 0.021	0.14 ± 0.084
S111R	-0.0942 ± 0.062	-0.109 ± 0.1
S111M	-0.29 ± 0.13	-0.221 ± 0.044
S111L	-0.312 ± 0.15	0.0433 ± 0.055
S111W	-0.398 ± 0.025	-0.238 ± 0.15
S111V	-0.166 ± 0.034	-0.0963 ± 0.19
S111G	-0.0328 ± 0.019	0.0352 ± 0.011
S111K	0.0499 ± 0.03	0.117 ± 0.069
S111D	0.00522 ± 0.022	0.254 ± 0.11
S111T	-0.0714 ± 0.048	-0.135 ± 0.095
Y109G	-0.0236 ± 0.016	-0.068 ± 0.13
Y109Q	0.169 ± 0.017	0.187 ± 0.04
Y109R	-0.0492 ± 0.044	-0.0348 ± 0.12
Y109C	0.11 ± 0.029	0.0862 ± 0.035
Y109E	0.0811 ± 0.022	0.0603 ± 0.1
Y109P	-0.126 ± 0.048	-0.0599 ± 0.12
Y109F	0.181 ± 0.098	0.256 ± 0.0068
Y109H	0.101 ± 0.012	0.0985 ± 0.17
Y109A	0.135 ± 0.022	0.146 ± 0.097
Y109N	0.158 ± 0.051	0.209 ± 0.066
Y109L	0.112 ± 0.033	0.156 ± 0.04
Y109V	0.0576 ± 0.039	0.119 ± 0.099

Variant	selection coefficient against synonymous wild-type codons (log2) (methotrexate 8.8 µM)	selection coefficient against synonymous wild-type codons (log2) (methotrexate 44 µM)
Y109T	0.00879 ± 0.03	-0.00112 ± 0.08
Y109W	-0.17 ± 0.0065	-0.244 ± 0.098
Y109M	0.125 ± 0.066	0.357 ± 0.36
Y109S	0.136 ± 0.056	0.111 ± 0.14
Y109K	0.00224 ± 0.05	-0.101 ± 0.14
Y109D	-0.0143 ± 0.024	-0.00771 ± 0.14
D100R	-0.682 ± 0.15	-0.329 ± 0.059
D100M	-0.403 ± 0.024	-0.207 ± 0.19
D100E	-0.0429 ± 0.028	-0.118 ± 0.14
D100Y	-0.418 ± 0.086	0.0502 ± 0.53
D100H	-0.0717 ± 0.085	0.0484 ± 0.093
D100C	-0.455 ± 0.033	-0.286 ± 0.13
D100N	-0.263 ± 0.024	-0.096 ± 0.026
D100Q	-0.255 ± 0.063	-0.321 ± 0.06
D100P	-0.565 ± 0.12	-0.107 ± 0.11
D100G	-0.226 ± 0.035	-0.274 ± 0.057
D100V	-0.525 ± 0.2	-0.274 ± 0.095
D100S	-0.341 ± 0.096	-0.241 ± 0.085
D100A	-0.227 ± 0.083	-0.263 ± 0.081
D100F	-0.712 ± 0.041	-0.209 ± 0.046
D100L	-0.59 ± 0.12	-0.226 ± 0.17
D100K	-0.339 ± 0.055	-0.212 ± 0.042
D100I	-0.7093 ± 0.0023	-0.206 ± 0.075

Variant	selection coefficient against synonymous wild-type codons (log2) (methotrexate 8.8 µM)	selection coefficient against synonymous wild-type codons (log2) (methotrexate 44 µM)
D100W	-0.754 ± 0.12	-0.318 ± 0.093
D100T	-0.343 ± 0.14	-0.0781 ± 0.17
L104C	-0.486 ± 0.088	-0.323 ± 0.051
L104P	-0.554 ± 0.083	-0.0529 ± 0.069
L104D	-0.632 ± 0.1	-0.266 ± 0.05
L104I	-0.182 ± 0.039	-0.171 ± 0.14
L104W	-0.311 ± 0.089	-0.192 ± 0.14
L104H	-0.53 ± 0.13	-0.167 ± 0.055
L104V	-0.33 ± 0.069	-0.27 ± 0.14
L104F	-0.319 ± 0.061	-0.147 ± 0.18
L104S	-0.397 ± 0.16	-0.166 ± 0.13
L104T	-0.399 ± 0.0046	-0.234 ± 0.12
L104M	-0.0555 ± 0.031	-0.0176 ± 0.03
L104G	-0.593 ± 0.068	-0.21 ± 0.081
L104E	-0.581 ± 0.047	-0.273 ± 0.11
L104Y	-0.304 ± 0.11	-0.252 ± 0.12
L104K	-0.13 ± 0.031	-0.191 ± 0.16
L104Q	-0.338 ± 0.11	-0.253 ± 0.036
L104A	-0.449 ± 0.12	-0.0549 ± 0.37
L104R	-0.351 ± 0.07	-0.137 ± 0.3
Q107W	-0.421 ± 0.037	-0.298 ± 0.1
Q107C	-0.132 ± 0.057	-0.116 ± 0.054
Q107V	-0.238 ± 0.06	-0.127 ± 0.13

Variant	selection coefficient against synonymous wild-type codons (log2) (methotrexate 8.8 µM)	selection coefficient against synonymous wild-type codons (log2) (methotrexate 44 µM)
Q107Y	-0.407 ± 0.14	-0.094 ± 0.062
Q107P	-0.551 ± 0.14	-0.151 ± 0.062
Q107M	-0.205 ± 0.076	-0.201 ± 0.17
Q107A	-0.184 ± 0.061	-0.128 ± 0.16
Q107S	-0.0378 ± 0.037	-0.0117 ± 0.14
Q107L	-0.287 ± 0.051	-0.256 ± 0.14
Q107R	0.0386 ± 0.019	-0.00182 ± 0.14
Q107I	-0.358 ± 0.067	-0.263 ± 0.022
Q107H	-0.0277 ± 0.044	-0.129 ± 0.11
Q107K	0.0169 ± 0.092	0.107 ± 0.096
Q107T	-0.00899 ± 0.044	-0.0337 ± 0.16
Q107D	-0.0451 ± 0.035	0.0265 ± 0.08
Q107N	-0.0109 ± 0.093	0.0635 ± 0.21
Q107E	0.00318 ± 0.032	0.0157 ± 0.049
Q107G	-0.12 ± 0.044	-0.116 ± 0.082
A101Q	-0.738 ± 0.032	-0.234 ± 0.044
A101T	-0.372 ± 0.39	-0.0304 ± 0.22
A101Y	-0.685 ± 0.064	-0.182 ± 0.013
A101F	-0.544 ± 0.12	-0.328 ± 0.022
A101N	-0.584 ± 0.054	-0.0824 ± 0.024
A101P	-0.619 ± 0.1	-0.16 ± 0.046
A101I	-0.612 ± 0.11	-0.197 ± 0.036
A101S	-0.545 ± 0.13	-0.212 ± 0.17
